From PubChem BioAssay AID602332 (National Center for Advancing Translational Sciences (NCATS), 2012)
The campaign covered roughly 420,000 compounds. About 75 (0.02%) were called active. The inconclusive results got no clear call from the source; some entries with a clear call stand among them for comparison. The call rests on the fitted dose curve; in most records, active means well fitted activation curve with a large enough effect; inconclusive means small, poorly fitted or top-dose-only effect; inactive means no such curve, though single readings can be large or run the other way. Potencies of inconclusive entries are doubtful fits and often do not repeat.

Test: qHTS for Inducers of the Endoplasmic Reticulum Stress Response (ERSR) in Human Glioma: qHTS; further: nearly all actives have a fitted effect of over 35% in size; on activation: % of control where 0% means no effect
Conditions: U87-MG GRP78 promoter luciferase reporter, 16 h; activation: active compounds read high
Excerpt: Primary protein unfolding takes place for many diseases, including diabetes and hypoxia, , and triggers a reaction in the cells called ER stress response (ERSR). ). ERSR is designed as a repair mechanism, but ultimately leads to cell death via apoptosis if conditions triggering protein unfolding persist (1). The molecular clue to ERSR activation is the enhancement of the expression of key molecular chaperones, including the glucose regulated protein (GRP) 78. GRP78 is the main sensor for protein folding and the main actuator of the ERSR.
In a collaboration between the Southern Research Institute and the NIH Chemical Genomics Center, a cell based screen was developed that reliably uses GRP78 as a sensor to identify small molecules as inducers of ERSR. In resting conditions, GRP78 binds proteins and acts as a natural repressor. Once unfolded proteins are present in the ER, GRP78 releases some of the repressors and binds to the unfolded proteins. The release of the repressors executes the ERSR program. Using a human glioma cell line in a miniaturized, luminescent format, a high-throughput screen was developed to identify actuators of the ERSR.
(1) Soboloff, J. and S. A. Berger (2002). "Sustained ER Ca2+ depletion suppresses protein synthesis and induces activation-enhanced cell death in mast cells." J Biol Chem 277(16): 13812-20.
NIH Chemical Genomics Center [NCGC]
NIH Molecular Libraries Probe Centers Network [MLPCN]
Assay Submitter (PI): Maurizio Grimaldi, Southern Research Institute
Stable transfected human glioma cell line, U87-MG, are dispensed at density 1000 cells/well into Greiner white solid bottom 1536-well assay plates. Compounds are transferred via Kalypsys pin tool equipped with 1536-pin array (10nl slotted pins, V&P Scientific, San Diego, CA). The assay plates will be incubated for 16 hours and developed by adding appropriate quantities of the Promega Bright Glo reagent. The plates will be incubated at room temperature for 10 minutes prior to being transferred into a ViewLux high-throughput CCD imager (PerkinElmer), wherein end-point measurements of luminescence are acquired.
Potency means the concentration at half of the fitted maximal effect; tags describe the fitted curve by direction and shape.

Structure (SMILES)	Potency	activation
CCOc1ccc(-c2c(=O)n(O)c3ccccc3[n+]2[O-])cc1	inconclusive: 11.2 µM [activator, single point]	
CC(=O)N(Cc1ccccc1)c1ncc2c(n1)c(=O)c(C#N)c1ccccn12	inconclusive: 28.2 µM [activator, single point]	
CCOC(=O)Cn1c(=O)oc2cc(S(=O)(=O)NCCc3ccc(C)cc3)ccc21	inconclusive: 50.1 µM [activator, single point]	
CC(SC#N)C(=O)C12CC3CC(CC(C3)C1)C2 (stereo not drawn)	inconclusive: 50.1 µM [activator, single point]	
CCOC(=O)Cc1csc(SCC(=O)Nc2cc(Cl)ccc2Oc2ccccc2)n1		inactive: -3.53%
O=C(CNC(=O)C(c1ccccc1)c1ccccc1)N/N=C\c1ccc2c(c1)OCO2	inconclusive: 22.4 µM [activator, full curve, poor fit]	
COC(=O)c1nn(-c2ccccc2)c(Sc2ccccc2)c1/C=N/O		inactive: -0.264%
O=C(Nc1cc(Cl)ccc1O)c1cc(-c2ccco2)on1	inconclusive: 10 µM [activator, partial curve, poor fit]	
C=CC(=O)N1c2ccccc2Sc2ccc(NC(=O)OCC)cc21	inconclusive: 12.6 µM [activator, single point]	
COc1ccc(/C=C/C(=O)Nc2ccc(C(C)=O)cc2)cc1S(=O)(=O)N1CCOCC1		inactive: -4.53%
COc1ccc(CNn2c(-c3cccc(C)c3)nc3ccccc3c2=O)cc1OC		inactive: -1.21%
CCN(CC)c1ccc(-n2cc3c(=O)n(C)c(=O)n(C)c3c2)cc1	inconclusive: 28.2 µM [activator, full curve, poor fit]	
C(=N\Nc1ccccc1)/c1ccc(N2CCOCC2)cc1		inactive: 2.9%
CCn1c(SCC(=O)c2ccc(O)c(O)c2)nnc1-c1ccccc1OC	inconclusive: 12.6 µM [activator, partial curve, poor fit]	
CCOc1ccc(/C=C/C(=O)c2ccccc2)cc1OC	inconclusive: 44.7 µM [activator, partial curve, poor fit]	
Cc1cccc(NC(=O)Cn2cc(C(=O)C3CCCCC3)c3ccccc32)c1		inactive: -3.28%
CCN(CC)CCC(c1cc(OC)c(OC)c(OC)c1)c1c(OC)cc(OC)c2c(C)cc(=O)oc12 (stereo not drawn)	inconclusive: 28.2 µM [activator, single point]	
COc1cc(O)c2c(=O)c3c(O)c(O)ccc3oc2c1OC	inconclusive: 11.2 µM [activator, single point]	
